The campaign covered roughly 43,000 compounds. About 200 (0.47%) were called active. Inconclusive results (about 12%) are left out. Calls come from the whole dose curve; as a rule, active = well fitted cell-killing curve with a large enough effect; inconclusive = small, poorly fitted or top-dose-only effect, or effect the other way; inactive = flat fitted curve, though single readings scatter. The list shows a part of the results.
Experiment: Cell viability qHTS assay in S16 Pmp22-F2sN cells; note: nearly all actives have a fitted effect of over 65% in size
Details: S16 Pmp22-F2sN Schwann cells viability, CellTiter-Glo, 24 h; series mostly up to 57.5 µM; activity change, negative = cytotoxicity: at the top concentration
In short: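 Used to flag compounds lowering reporter output through toxicity, this quantitative HTS measures ATP-based CellTiter-Glo luminescence in S16 Pmp22-F2sN Schwann cells after 24 h compound exposure at 37C.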
% is set by controls: 0 for no effect and ±100 for the full control effect.

SMILES | activity change, negative = cytotoxicity
COC(=O)Cc1c(C)c2ccc3c(c2oc1=O)CN(Cc1ccc(C)cc1)CO3 | inactive: -0.592%
Cc1ccccc1-c1noc(CSc2nc(-c3ccc(F)cc3)cc(=O)[nH]2)n1 | inactive: -0.596%
COc1ccc(-n2nnnc2SCC(=O)NCCc2ccccc2)cc1 | inactive: -3.44%
CCc1ccc(N2CC(c3nc4ccccc4n3Cc3ccccc3C)CC2=O)cc1 (stereo not drawn) | inactive: -15.3%
CCOc1ccc(C(=O)NCCc2sc(-c3cccc(F)c3)nc2C)cc1OCC | inactive: -0.994%
Cc1cccc(CNC(=O)CCCN2C(=O)c3cccnc3Oc3ccccc32)c1 | inactive: -2.01%
COc1ccc(-c2noc(-c3ccc(NCc4ccco4)c([N+](=O)[O-])c3)n2)cc1OC | inactive: 19%
Cc1ccc(NC(=O)CCCN2C(=O)COc3ccc(C)cc32)c(Cl)c1 | inactive: -9.42%
CCC1Oc2ccc(C)cc2N(CC(=O)NCCc2ccccc2)C1=O (stereo not drawn) | inactive: 9.73%
CCOC(=O)c1cnc2ccc(OC(F)(F)F)cc2c1Nc1ccccc1C(=O)O | inactive: -0.236%
O=C(Nc1cccc(C(F)(F)F)c1)C1CCN(S(=O)(=O)c2cccc3nsnc23)CC1 | inactive: 16.9%
O=C(Nc1ccc(OC(F)(F)F)cc1)C(Cc1ccccc1)NS(=O)(=O)c1cccc2nsnc12 (stereo not drawn) | inactive: -19.2%
CC(C)Cc1nn2c(=O)cc(COC(=O)CNC(=O)c3ccc(C(C)(C)C)cc3)nc2s1 | inactive: -17.5%
Cc1ccc(C)c(CNC(=O)c2ccc3c(c2)nc2n3CCOC2)c1 | inactive: 14.3%
Cc1ccc(S(=O)(=O)c2nnn3c2nc(NCc2ccc4c(c2)OCO4)c2sccc23)cc1 | inactive: -13%
CCOC(=O)c1c(Nc2ccc(O)cc2)nnc(-c2ccccc2)c1-c1ccccc1 | inactive: 5.32%
COC(=O)c1ccc(C2c3c(oc4ccc(C)cc4c3=O)C(=O)N2Cc2ccc3c(c2)OCO3)cc1 (stereo not drawn) | inactive: -0.896%
O=C(Cc1ccccc1)Nc1c(C(=O)c2ccccc2)oc2ccccc12 | inactive: 13.2%
COc1ccc(CNC(=O)c2cc3cc4ccc(C)cc4nc3o2)cc1 | inactive: -4.13%
CCc1ccc(C(=O)COC(=O)C(Cc2c[nH]c3ccccc23)NC(=O)c2ccc(CC)cc2)cc1 (stereo not drawn) | inactive: 11.3%
Cc1ccc(NC(=O)CSc2nnc(-c3nnn(-c4ccc(F)cc4)c3C)o2)cc1Br | inactive: 19.4%
Cc1ccc(OCC(=O)Nc2nonc2-c2ccc(C)c(C)c2)cc1C | inactive: 0.372%
Cc1ccc(NC(=O)CN2C(=O)COc3ccc(S(=O)(=O)N4CCCCCC4)cc32)cc1Cl | inactive: 0.908%
CCCCn1c(=NC(=O)C(C)(C)Oc2ccc(Cl)cc2)c(C(=O)OCC)cc2c(=O)n3ccccc3nc21 | inactive: 9.11%

SMILES | activity change, negative = cytotoxicity
COc1cccc(N2CCN(C(=O)c3cc4c(s3)-c3c(C)cccc3OC4)CC2)c1 | inactive: -0.0524%
O=C(Nc1ccc(Br)cc1)c1cc(-c2cccs2)nc2ccccc12 | inactive: -26.9%
CC(NC(=O)C1CCN(S(=O)(=O)c2ccc(F)cc2)CC1)c1ccccc1 (stereo not drawn) | inactive: -5.76%
O=C1CSC2(C(=O)N(Cc3ccccc3F)c3ccccc32)N1c1cccc(C(F)(F)F)c1 (stereo not drawn) | inactive: 22.4%
O=C(Cn1ncc2c3ccccc3n(Cc3ccc(Cl)cc3)c2c1=O)NCCC1=CCCCC1 | inactive: 0.0531%
CN(C)CCNC(=O)C1CCN(c2ncnc3c2nc2n3CCCCC2)CC1 | inactive: -1.59%
COc1ccc(-c2cc(C(=O)Oc3ccc(C)cc3)c3ccccc3n2)cc1 | inactive: 10.4%
CC(C)Oc1ccc(C(=O)N2CCC(c3nc4ccccc4o3)CC2)cc1 | inactive: -3.06%
CC(C)c1ccc(NC(=O)CSC2=Nc3ccccc3C3=NC(CC(=O)NCc4cccs4)C(=O)N23)cc1 (stereo not drawn) | inactive: -18.2%
CC(=O)Nc1ccc(NC(=O)CSc2nccn2Cc2ccc3c(c2)OCO3)cc1 | inactive: -6.85%
COc1cc(NC(=O)CSc2ncc3c(n2)-c2ccc(Cl)cc2N(Cc2ccccc2)S3(=O)=O)cc(OC)c1 | inactive: -3.26%
Cc1ccccc1NC(=O)c1cn(-c2ccccc2)nc1-c1ccccc1 | inactive: -1.28%
Cc1ccccc1-c1ccnc2[nH]n(-c3ccccc3)c(=O)c12 | inactive: 20%
O=S(=O)(NCC(c1ccco1)N1CCOCC1)c1ccc(Br)cc1 (stereo not drawn) | inactive: 13.6%
COc1ccc(OC)c(CN2CCN(S(=O)(=O)c3ccccc3)CC2)c1 | inactive: -8.21%
CCCn1c2ccccc2c2cnn(CC(=O)NCCCN3CCCCC3)c(=O)c21 | inactive: -8.54%
CCOc1ccc(NC(=O)c2sc3nc4c(c(-c5ccccc5)c3c2N)C(=O)CC(C)(C)C4)cc1 | inactive: -0.289%
Cc1ccc(S(=O)(=O)c2cnc(SCC(=O)Nc3ccc4c(c3)OCCO4)[nH]c2=O)cc1Cl | inactive: 11.3%
CCOc1cc(C2C(C(=O)OC)=C(C)NC3=C2C(=O)c2ccccc23)ccc1OC (stereo not drawn) | inactive: -4.88%
CCOC(=O)c1c(NC(=O)CSc2cn(CCNC(=O)c3cccc(C(F)(F)F)c3)c3ccccc23)sc2c1CCC2 | inactive: 0.629%
Cc1ccc2oc(C(=O)N(Cc3ccc(N(C)C)cc3)CC3CCCO3)c(C)c2c1 (stereo not drawn) | inactive: -20.2%
CCc1nnc2c(N3CCN(c4cccc(C(F)(F)F)c4)CC3)nc3ccccc3n12 | inactive: -16.2%
COc1ccc(CNC(=O)Cn2c(=O)c3cccn3c3ccccc32)cc1 | inactive: 0.054%
CN1CCN(CCCNC(=O)c2cnn(-c3ccc(F)cc3)c2-n2cccc2)CC1 | inactive: 15.3%
